PubChem BioAssay AID1460 (National Center for Advancing Translational Sciences (NCATS), 2008)
The campaign covered roughly 270,000 compounds. About 5,800 (2.1%) were called active. Inconclusive results, whose numbers are uncertain, are shown with a selection of clear calls. Calls follow the shape of the dose curve; as a rule, active = well fitted inhibition curve with a large enough effect; inconclusive = small, poorly fitted or top-dose-only effect; inactive = flat fitted curve, though single readings scatter. Potencies beside an inconclusive call are fits to weak or partial responses and may not hold up.

Target: Microtubule-associated protein tau (Homo sapiens) (UniProt P10636)
Test: qHTS for Inhibitors of Tau Fibril Formation, Thioflavin T Binding; also: nearly all actives have a fitted effect of over 55% in size
Conditions: recombinant tau K18 P301L (four-repeat tau fragment), heparin-induced fibrillization, ThT fluorescence; series mostly up to 57.4 µM; activity, negative = inhibition: at the top concentration
Outline: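 Recombinant human tau K18 fragment […] carrying P301L, 15 uM unlabeled plus 0.24 uM Alexa 594-labeled, was fibrillized with 20 uM heparin in 100 mM sodium acetate pH 7 for 6 hr at 37 C; 30 uM ThT fluorescence read after 1 hr.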
% is scaled to controls: 0 for no effect and ±100 for the full control effect; potency is read from the fitted curve at half-maximal effect; tags tell the direction and shape of the fitted curve.

Sequence of UniProt P10636 (P10636 whole entry, looked up): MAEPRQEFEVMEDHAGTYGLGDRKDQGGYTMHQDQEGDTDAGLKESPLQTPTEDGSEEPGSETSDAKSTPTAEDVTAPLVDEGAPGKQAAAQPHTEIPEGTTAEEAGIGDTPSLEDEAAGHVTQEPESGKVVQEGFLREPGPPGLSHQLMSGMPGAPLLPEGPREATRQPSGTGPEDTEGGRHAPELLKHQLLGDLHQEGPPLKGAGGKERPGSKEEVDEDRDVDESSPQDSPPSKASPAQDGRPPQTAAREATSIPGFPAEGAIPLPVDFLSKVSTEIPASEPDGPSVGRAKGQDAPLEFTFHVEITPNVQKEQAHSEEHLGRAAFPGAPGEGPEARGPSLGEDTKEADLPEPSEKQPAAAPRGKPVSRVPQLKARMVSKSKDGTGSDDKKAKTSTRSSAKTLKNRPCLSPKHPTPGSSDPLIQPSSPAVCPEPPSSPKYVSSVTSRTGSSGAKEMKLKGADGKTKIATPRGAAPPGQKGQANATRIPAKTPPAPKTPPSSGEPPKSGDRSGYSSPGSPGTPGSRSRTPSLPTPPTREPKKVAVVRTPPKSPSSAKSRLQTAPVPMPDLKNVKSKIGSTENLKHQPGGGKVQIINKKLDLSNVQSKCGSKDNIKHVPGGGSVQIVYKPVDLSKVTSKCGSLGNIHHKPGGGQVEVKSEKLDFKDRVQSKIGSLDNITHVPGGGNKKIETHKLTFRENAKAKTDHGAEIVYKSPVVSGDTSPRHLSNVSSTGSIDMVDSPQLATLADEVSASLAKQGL

SMILES | Potency | activity, negative = inhibition
CN(C)S(=O)(=O)c1cccc(NC(=O)c2ccc(N3CCOCC3)c([N+](=O)[O-])c2)c1 | inconclusive: 15.8 µM [inhibitor, partial curve] | –
Cc1c(Cl)cnc(NC(=O)COC(=O)Cc2coc3ccc4ccccc4c23)c1Cl | inconclusive: 14.1 µM [inhibitor, partial curve] | –
Cc1nn(CCC(=O)Nc2ccccc2Br)c(=O)c2nn(-c3ccccc3)c(C)c12 | – | inactive: -2.18%
CN1CCc2c(sc3c2C(=O)NC(c2ccc4c(c2)OCO4)N3)C1 (centres undefined) | inconclusive: 1.41 µM [inhibitor, full curve] | –
CCC(=O)NC(=S)NNC(=O)c1ccccc1[N+](=O)[O-] | inconclusive: 31.6 µM [inhibitor, single point] | –
CSc1ccc(/C=C/C(=O)c2ccc(NC(=O)Cc3ccccc3)cc2)cc1 | inconclusive: 17.8 µM [inhibitor, partial curve] | –
Cn1c(CCNC(=O)c2ccco2)nc2cc(NC(=O)c3ccco3)ccc21 | – | inactive: -20.8%
O=C1CCC/C(=N\NC(=O)c2ccc(CSc3cccc4cccnc34)cc2)C1 | inconclusive: 8.91 µM [inhibitor, partial curve] | –
O=C(c1cccs1)N1CCN(Cc2ccncc2)CC1 | – | inactive: 3.71%
CC(=O)n1cc(N(C(=O)CCl)c2ccc(Cl)cc2)c2ccccc21 | active: 28.2 µM | –
CCOc1cccc(=O)c2c(C)n(Cc3ccccc3)c(C)c12 | inconclusive: 28.2 µM [inhibitor, partial curve] | –
CCc1cc(=O)[nH]c(SCc2nc(-c3ccc(C(F)(F)F)cc3)no2)n1 | inconclusive: 6.31 µM [inhibitor, full curve] | –
COc1ccc(N2CCN(C(c3ccc(F)cc3)c3sc4nc(-c5ccco5)nn4c3O)CC2)cc1 (centres undefined) | inconclusive: 14.1 µM [inhibitor, partial curve, poor fit] | –
CCOC(=O)N1CC=C2C(C#N)=C(N)C(C#N)(C#N)[C@H](c3ccsc3)[C@H]2C1 | inconclusive: 25.1 µM [inhibitor, partial curve] | –
Cc1ccc(S(=O)(=O)CCC(=O)N2CCN(c3nc4c(C)c(C)ccc4s3)CC2)cc1 | inconclusive: 3.55 µM [inhibitor, partial curve] | –
CC(Cc1n[nH]c(=S)o1)c1ccccc1 (centres undefined) | – | inactive: -2.09%
CN1CCc2c(sc(/N=C/c3c[nH]c4ccccc34)c2C(N)=O)C1 | active: 10 µM | –
Cc1ccc(NC(=O)CSc2nccn2C2CCCC2)cc1Cl | – | inactive: -0.168%
Cn1cccc1C(=O)NC(=O)COC(=O)CNC(=O)CNC(=O)c1ccc(Cl)cc1Cl | inconclusive: 35.5 µM [inhibitor, single point] | –
O=C(NC1CCCC1)c1csc2c1CCCC2 | – | inactive: 4.3%
O=C(CSCc1cnn(-c2ccccc2)c1-n1cccc1)N1CCN(Cc2ccccc2)CC1 | inconclusive: 35.5 µM [inhibitor, partial curve] | –
COc1ccc(-c2nn(-c3ccccc3)cc2C(=O)O)cc1OC | – | inactive: 8.36%

SMILES | Potency | activity, negative = inhibition
Oc1ccc2ccccc2c1/C=N/n1cnnc1 | inconclusive: 11.2 µM [inhibitor, partial curve] | –
Cc1ccc(/C=C/C(=O)Nc2cccc3cccnc23)o1 | inconclusive: 31.6 µM [inhibitor, partial curve] | –
Cc1ccc(Nc2c(-c3ccc(C)o3)nc3cnccn23)cc1 | inconclusive: 35.5 µM [inhibitor, single point] | –
COc1ccccc1N1CCN(/N=C/C(Cl)=C/c2ccccc2)CC1 | inconclusive: 12.6 µM [inhibitor, partial curve] | –
Cc1cc(Cl)ccc1OCC(=O)N(Cc1ccc(N(C)C)cc1)C1CCS(=O)(=O)C1 (centres undefined) | inconclusive: 39.8 µM [inhibitor, single point] | –
Cc1ccc(NS(=O)(=O)c2cc(C(=O)NCc3ccccn3)ccc2Cl)cc1C | – | inactive: -9.52%
Cc1cccc(C(C)C)c1NC(=O)c1ccc2c(c1)CCCN2S(C)(=O)=O | – | inactive: -3.61%
COc1ccc(C(=O)N/N=C(\C)c2ccc3c(c2)C2C=CCC2C(c2ccccc2)N3)cc1 (centres undefined) | active: 12.6 µM | –
COc1ccc(C(C)=O)cc1CSc1nnc(Nc2ccc(C)cc2C)s1 | inconclusive: 3.98 µM [inhibitor, partial curve] | –
COc1ccc(-c2ccc(OC(=O)NC3CCS(=O)(=O)C3)cc2)cc1 (centres undefined) | inconclusive: 12.6 µM [inhibitor, partial curve] | –
Fc1ccc(N2CCN(c3ncnc4[nH]ncc34)CC2)cc1 | inconclusive: 2 µM [inhibitor, full curve] | –
COc1cccc(-c2ccc(-c3noc(-c4cccs4)n3)c(OC)n2)c1 | inconclusive: 7.94 µM [inhibitor, partial curve] | –
CCc1ccc2c(c1)c(N=NC1=NC(=O)CS1)c(O)n2CC | inconclusive: 12.6 µM [inhibitor, partial curve] | –
O=C(CONS(=O)(=O)c1ccc(Cl)cc1)NCCNc1ncc(C(F)(F)F)cc1Cl | – | inactive: -8.46%
Cc1ccc(N2C(=O)c3ccccc3C2C(=O)c2cc(C)ccc2O)cc1 (centres undefined) | inconclusive: 17.8 µM [inhibitor, single point] | –
O=C(NCc1cccnc1)c1ccc(-c2ccc(Cl)cc2)o1 | – | inactive: -0.549%
CN(C)C(=O)CSc1nnc(-c2ccc(F)cc2)c2ccccc12 | inconclusive: 3.55 µM [inhibitor, partial curve, poor fit] | –
NC(=O)/C(=N\OC(=O)c1ccco1)c1nc(-c2ccc(Br)cc2)cs1 | inconclusive: 7.08 µM [inhibitor, partial curve] | –
O=S(=O)(NCc1cc(-c2ccccc2)no1)c1ccc(Cl)cc1 | inconclusive: 10 µM [inhibitor, partial curve, poor fit] | –
COCn1c(-c2cccc(Br)c2)nc2ccccc21 | inconclusive: 20 µM [inhibitor, single point] | –
O=C(Nc1cccc2c1CCCC2)N1CCOc2ccc(Cl)cc21 | – | inactive: -1.93%
Cc1ccc(C2C(C#N)=C(N)Oc3n[nH]c(-c4cccs4)c32)cc1 (centres undefined) | inconclusive: 25.1 µM [inhibitor, single point] | –
